Measurements taken from ChEMBL document CHEMBL4888484, “Replenishing the malaria drug discovery pipeline: Screening and hit evaluation of the MMV Hit Generation Library 1 (HGL1) against asexual blood stage Plasmodium falciparum ,using a nano luciferase reporter read-out” (2022).
Among all 150,000 compounds or so, about 540 (0.36%) showed an effect of 50% or more. Some of the results follow.

Tested on: Plasmodium falciparum
Experiment: Primary screen in NF54 nanoGlo assay, in single point, at 2uM, 72h; a lower Z score goes with more inhibition
Assay type: functional, Erythrocyte
Settings: timepoint 72 hour

SMILES | % Inhibition [%] | Z score
COCCCNC(=O)c1ccc(CN2C(=O)CCn3nccc32)cc1 | 13 | -1.46
O=C(CC1CCN(C(=O)c2cc3ccccc3[nH]2)CC1)NCc1cccc(Cl)c1 | 12 | -1.43
CCCN1CCN(CCCNC(=O)[C@H]2CCCN(c3nc4ncccc4n4cccc34)C2)CC1 | 6 | -0.68
COc1ccccc1/C=C/CN1CCN(C(=O)N(C)C)[C@H]2CS(=O)(=O)C[C@H]21 | 1 | -0.08
Cc1cc(S(=O)(=O)Nc2cnc3c(c2)COCC3)c(C)s1 | -3 | 0.47
Cc1cc(C)cc(NC(=O)[C@H]2CC23CCN(Cc2cccc4cccnc24)CC3)c1 | 14 | -1.2
COCCNc1nc2c(c(N(C)CCc3ccccn3)n1)CCNCC2 | -4 | 0.73
O=C(C1CCCCC1)N1CC[C@@]2(CO)CN(Cc3ccccc3)C[C@H]2C1 | -20 | 2.37
Cc1ccc(CNC(=O)c2cnc(-c3ccccc3)nc2-c2ccncc2)cc1C | -1 | 0.08
O=C(c1cccc2[nH]ccc12)N1CC(Oc2ccccc2-c2nc(-c3cnccn3)no2)C1 | -14 | 1.55
Cc1nsc(NC(=O)N2CCC([C@@H](O)CCc3ccccc3)CC2)n1 | 0 | 0.05
CC[C@@H](CO)N(Cc1cccnc1)C(=O)c1ncccc1C(=O)c1ccccc1 | -7 | 0.92
COc1ccc(C(=O)N2C[C@H]3CC(=O)NCCN(C)C(=O)c4cccn(c4=O)Cc4cn(nn4)[C@H]3C2)cc1 | -9 | 1.62
CCn1ncnc1-c1ccc(C(=O)N[C@@H]2COC(C)(C)C2)cc1 | 2 | -0.25
CCc1cc(C(=O)Nc2cc(Cl)ccc2OC)nc2ccnn12 | -6 | 0.91
O=C(Nc1nc(-c2cccc3ccccc23)cs1)c1ccc[n+]([O-])c1 | -3 | 0.38
OCC1CCN(c2ccc(-c3nc(-c4cccc(C(F)(F)F)c4)no3)cn2)CC1 | -7 | 0.97
CC(C)CC(C)OCCC(=O)NC1CCN2CCCCC12 (stereo not given) | 31 | -3.5
Cc1nc(N2CCOCC2)[nH]c(=O)c1CCC(=O)N1CCC[C@H]1C(=O)Nc1nccs1 | 4 | -0.41
Cc1nnc(N2CCC(C(=O)N[C@@H](C)c3ccccc3)CC2)c2nn(-c3ccccc3)c(C)c12 | 11 | -1.33
CN(CC(F)F)C(=O)NCc1cc(F)ccc1Br | -9 | 1.21
Cn1c(NC(=O)c2ccc(OCc3ccccc3)nc2)nc2c(C#N)cccc21 | -11 | 1.9
COc1ccccc1CN1C(=O)N[C@@H](CC(=O)N2CCc3cc(OC)c(OC)cc3C2)C1=O | 5 | -0.96
CN(c1ccc2c(c1)OCO2)S(=O)(=O)c1ccsc1-c1nc(-c2cccc(Cl)c2)no1 | -10 | 1.41
CCN(C(=O)c1csnc1C)[C@@H](C)Cc1ccc(OC)cc1 | 3 | -0.34

SMILES | % Inhibition [%] | Z score
C[C@H]1CCc2nn3ccn(CC(=O)Nc4ccccc4)c(=O)c3c2C1 | -10 | 1.59
CC(=O)N[C@H]1CO[C@H]2[C@@H]1OC[C@@H]2n1nnnc1-c1ccc(N(C)C)cc1 | -5 | 0.7
CC[C@@H](CO)NC(=O)C1CC12CCc1cc(Br)ccc12 (stereo not given in full) | -13 | 2.03
Cc1nc(N2CCC[C@H](CNC(=O)c3cncn3C)C2)sc1C | -6 | 0.66
Cn1ccc2cc([C@@H](O)CNC(=O)CC(C)(C)C)ccc21 | -12 | 1.48
Cc1oc(-c2cc(C(F)(F)F)[nH]n2)cc1S(=O)(=O)N1CCN(C)C(=O)[C@@H]1C | -10 | 1.35
CCOC(=O)C1CCN(C(=O)c2coc(CN(Cc3ccccc3)Cc3ccc(C(F)(F)F)cc3)n2)CC1 | -25 | 2.24
O=C1C[C@H](C(=O)O)C2(CCN(CC3CC3)CC2)N1 | 15 | -1.95
Cc1cc2c(c(-c3ccc(C(=O)NCC(C)C)o3)c1)O[C@@H](CN)C2 | 3 | -0.51
CCN1CC[C@H](c2nc(-c3ccncc3)nn2C(C)C)C1 | -10 | 1.8
Cn1cc(-c2nnc(O)c3ccccc23)cn1 | -16 | 2.31
Cc1nn(-c2ccc(F)cc2)c2c1[C@@H](c1ccc(OCC(N)=O)cc1)CC(=O)N2 | -4 | 0.53
CN(Cc1ccccc1F)C(=O)c1cc(S(=O)(=O)N2CCOCC2)ccc1N1CCCC1 | 3 | -0.52
COCCN(CC1CN(CC(C)O)CCO1)C(=O)c1ccccc1 (stereo not given) | -10 | 1.49
Cc1nc[nH]c1CN1C[C@H]2CC[C@@H](C1)N(C(=O)c1scnc1C)C2 | -1 | 0.13
c1ccc(-c2noc(CCCN[C@H]3CCc4ncnn4C3)n2)cc1 | -2 | 0.32
COc1ccc(CN2CCCN(c3ccc(NC(=O)NCc4ccccc4)cc3)C2=O)cc1 | -1 | 0.21
COc1ccc(S(=O)(=O)N(C)c2ccc3sc(C(=O)N4CCCCCC4)cc3c2)cc1 | -15 | 2.15
Cn1ccc(CNc2ccccc2C(F)(F)F)n1 | 30 | -3.39
CC[C@H]1CN(C(=O)c2cc(O)nc3ccccc23)CCO1 | -3 | 0.57
COc1ccc(CN(Cc2ccco2)C(=O)Nc2cccc(F)c2)cc1OS(=O)(=O)c1cccc(C(F)(F)F)c1 | 2 | -0.33
Cc1ccc2c(CNCCCc3ccccc3)c(C(=O)O)[nH]c2c1 | -11 | 1.06
CCNS(=O)(=O)c1cnc(C(F)(F)F)c(C(=O)OCC)c1 | 2 | -0.19
Cc1cc2c(C)nc(N3CCC(NC[C@H](C)Oc4cccnc4)CC3)nc2cc1F | 2 | -0.23
Cc1noc(-c2cccc(=O)n2CC(=O)Nc2ccc(C)c(C)c2)n1 | -12 | 1.95
